In all, about 33,000 sequences were measured (“E-score (-0.5 to 0.5)”: median about -0.035, highest 2% from about 0.34 on). The list shows a part of the results.
Target: T1, Mot3 (UniProt P54785)
T1 sequence: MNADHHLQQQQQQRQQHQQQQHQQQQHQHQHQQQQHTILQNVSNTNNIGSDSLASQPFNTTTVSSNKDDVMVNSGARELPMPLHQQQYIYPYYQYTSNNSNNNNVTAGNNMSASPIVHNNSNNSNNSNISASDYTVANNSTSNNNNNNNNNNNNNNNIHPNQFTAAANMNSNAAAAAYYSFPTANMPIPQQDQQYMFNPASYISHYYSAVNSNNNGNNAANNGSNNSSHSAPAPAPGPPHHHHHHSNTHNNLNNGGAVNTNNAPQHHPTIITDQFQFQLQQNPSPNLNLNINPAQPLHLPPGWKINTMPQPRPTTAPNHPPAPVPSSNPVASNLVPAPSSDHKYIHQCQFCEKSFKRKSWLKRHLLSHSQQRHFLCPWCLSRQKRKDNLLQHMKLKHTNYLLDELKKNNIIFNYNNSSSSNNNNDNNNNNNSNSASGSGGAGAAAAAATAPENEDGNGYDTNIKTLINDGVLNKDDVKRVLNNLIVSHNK
Assay: PBM E-score (8-mer binding enrichment) (E-score (-0.5 to 0.5)); higher = stronger / more preferred TF binding; most listed sequences are background and not binding sites
Details: protein concentration: 200 nM; construct: GST-full length
In short: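 GST-tagged yeast TFs (full-length or DNA-binding domain) were made by PURExpress in vitro transcription/translation and applied at about 100-200 nM to universal all-10-mer Agilent arrays. The arrays were made double-stranded by primer extension, on fresh or once-stripped slides. Bound protein was detected with fluorescent anti-GST, and scans were normalised with masliner. Each ungapped eight-base word, pooled with its reverse complement, received an E-score (modified Wilcoxon-Mann-Whitney statistic) from the Universal PBM Analysis Suite.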

Sequence	PBM E-score
GAAATCAC	0.198
AAAATTCT	0.015
AGACACTA	-0.0445
GATAGGGA	-0.155
ACCCAAAT	0.179
CCGCTACC	-0.223
AATCATAA	0.0305
TAAGTGCA	0.0199
ATGTGGTC	-0.0678
ATTCCAAG	0.00035
GGATGCTA	-0.276
ATGTCCCA	-0.224
ACCCCGCT	-0.322
CACTCGGA	-0.0306
TACCTGCA	0.403
ACTCCTGA	-0.165
AACCACGT	0.182
GATAGATC	-0.0899
GAGAAAGC	-0.0963
CCAGTTGA	-0.0825
TGCTACAA	0.134
AGCTTCCC	-0.287
AACCACTT	0.0242
CCGGATTC	-0.329
CTCCTACA	0.136

Sequence	PBM E-score
AACCTGGA	-0.0836
CCCCTCAG	-0.151
CATACAAC	0.15
ATTCGCGG	0.0358
ACATCTCC	0.00689
CCTTCGCC	-0.106
ATGCTCAC	-0.0615
TAGGTAAA	0.276
CGGGTCGC	-0.201
TGTAGAAA	0.337
TCTCATAA	-0.122
CAATTTAG	0.0343
AAGTCTAA	0.0239
GGACGGCC	-0.199
AGGGGAGC	-0.216
CACCGGAG	-0.299
ACAAACCC	0.11
AACAATAT	0.295
CTAATTAA	0.0811
AAACGGTG	0.0529
AAACAATT	-0.024
CTTAATGC	-0.137
CGGTATAG	-0.202
CATCCTTC	0.0917
TACGCCCA	-0.0439

Sequence	PBM E-score
GGTACAAC	0.0803
CTCTGCGC	-0.0498
AGTATTGC	0.111
AGGACGGG	-0.187
TAGCGTAA	0.185
CTAGCCTA	-0.184
CGCCCTTC	-0.218
CCTGACGA	0.191
ATTAGATA	0.0716
AGCCTCCA	-0.369
CAACCAAC	0.0394
TTCGGAAA	-0.185
CCAGGCAC	0.487
CCCTCTCG	-0.33
GAATTTCA	-0.0752
CTCATTGC	-0.0374
AGTGCCGA	-0.324
GAGATAGC	-0.227
GAACTTCA	-0.0947
GGTGTCAA	0.0373
CGCCTCAC	0.0846
GCTAAAAC	0.0951
CCCGCTAG	-0.192
CAGAGTTC	-0.124
ATTGAACC	0.108

Sequence	PBM E-score
CAAATGCG	-0.0866
AATATCCC	-0.178
ATTAGGGC	-0.0941
AACGCTGT	0.109
AACGTCAG	-0.144
CATCGTTC	0.0809
AGCCGCAC	-0.216
GGGTTCGA	-0.0674
ACATCTAC	0.26
GGGTCAAC	-0.162
TGAGGGCA	-0.0148
GAAGGAAA	0.454
TCCTACCA	-0.108
ATTCCTTG	0.0459
GCAGTTAA	-0.0564
ACGCATCG	-0.0642
ACCACATA	0.153
CATACGTA	0.228
GTGATCTA	-0.0534
TCAATTAA	0.16
ACTCTTGA	-0.0504
GGGCATAA	-0.204
GAACGTAC	0.143
ATAACTCA	0.13
CTCTTTAA	-0.0131

Sequence	PBM E-score
GGAGCGAC	-0.267
CGTTGGGC	-0.00826
GAACTCTA	0.0582
GCTCCCCC	-0.288
CCAAAAAA	0.118
AGGCTGAT	-0.165
CGGCATAC	-0.141
AGGCTTAC	0.00056
AAAAACGT	0.0784
ATTACACG	0.435
AACAAATA	0.119
AAGTTGTG	0.089
CACACGAC	0.0741
TAAACGCA	0.203
AGATGAAT	0.15
AGGGTAAG	-0.0833
GCTAGGTA	-0.0278
CCGGACTA	-0.219
TCCCACGA	-0.194
GTTAGAAC	0.0517
AGCTCGGG	-0.267
ATTACGTA	0.354
GAGTAAAC	0.158
AGTACCAG	-0.106
ACCTCTGC	-0.247

Sequence	PBM E-score
GGACGTGA	-0.213
AGTCTGTG	0.00931
AATGCTTC	-0.0775
GCGATGTA	0.245
AATCAGTA	0.185
AAGCTGCG	0.0174
CGGGCATA	-0.286
CGTTTGGA	-0.232
CTTTGGCC	0.0624
TAACCGGA	0.0658
CACTACAC	0.305
GTGGTTCA	-0.0314
ACCTTGAT	0.00535
TGATGTAA	0.281
AATGAGAC	-0.0839
TCAACCAA	0.0249
ACCGCCCA	-0.0736
AAGAGACA	0.0354
AACAGGGC	0.0406
GCGTCTCA	-0.0998
GCGAACAA	0.00895
CCGGGGTA	-0.212
CCAGGGGG	-0.259
AATGTGGG	-0.125
ACTGGCCC	-0.252

Sequence	PBM E-score
AACCAAAG	0.034
CCACGGCC	-0.233
CTCAAATC	-0.0697
CTTTTTTA	0.0642
CAACATAG	0.221
CAAACCTA	0.0865
AGCATTCC	-0.159
ACTGTGAG	0.0262
GCTTACCA	-0.0458
CTATCACA	0.073
TGATATCA	-0.108
ATTATGCG	0.0432
ATAGGATC	-0.108
TTACCGAA	0.0463
ACCTACTA	0.122
CAGCGAGA	-0.219
CCACGTAC	0.0592
ATGAGCAC	-0.0928
ACGTGAAG	0.04
CGGGGAAG	-0.278
AGCTATAA	-0.0249
ATTCTGGC	-0.101
AAAGAAAC	0.165
GATCCAGC	-0.228
AAAAATCC	0.144

Sequence	PBM E-score
CCATGATC	-0.251
ACCTGGCG	0.0197
TCAGTGAA	-0.124
ATCCACCC	-0.246
GCTAGGGA	-0.136
CAACTGCC	-0.187
GGCCTAAC	0.0201
CTAAAGAC	0.0438
ATCGTTCA	0.00043
AGATATAA	0.0221
CTTTTTCA	0.115
CCAAGACC	-0.252
CCCTAAGA	-0.172
ACTGATTG	-0.0873
AGGGAACG	-0.054
AACCTATT	0.0398
GAAGCTTC	-0.191
AAAAATGC	0.0116
GGTTAGCA	-0.126
GAATTCAA	-0.105
CCGAGGTA	-0.143
GGCATCCA	-0.0625
CAAAGTCA	0.00206
AGATGCAC	-0.249
CTATTCGA	-0.0163

Sequence	PBM E-score
CTTGCCGC	-0.231
CAGCACTA	-0.113
AGTATTCC	-0.0202
GCTCCGAA	-0.139
ACACTGAT	-0.138
GTGTTTGA	0.246
AAGTATTG	0.0601
GGAGCCGA	-0.26
CCCAGTTC	0.0538
TGTCCACA	0.1
TATTTGCA	0.216
GTGGAGCA	-0.196
AGCCTTAA	0.158
AGGAGATC	-0.148
AACAAGTG	0.112
AAGGGTAC	0.111
AAGCATTG	-0.0699
GAACGGAC	-0.135
AGGAAGCC	-0.161

Source: the supplement of paper PMC3334620
